Among the data in the RNAGym collection of RNA variant scans (doi:10.1101/gad.245936.114) are nonsense suppression values, retold here.

Variants at the floor of the assay are shown more often than the library holds them. Where only a bound is given, the exact number is not on record here.

First the molecules themselves.
B1: tRNA (parent)
chain: CUCUCGGUAGCCAAGUUGGUUUAAGGCGCAAGACUUUAAUUUAUCACUACGAAAUCUUGAGAUCGGGCGUUCGACUCGCCCCCGGGAGAUUUUUUCCUCGAGCAA

The series covers variants of B1. In words: nonsense suppression (GFP-seq) (ratio to wild type); higher = more function; SUP4oc tRNA, yeast GFP reporter sort-seq. In short, it runs like this: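 Raffinose/galactose medium with 80 mg/L adenine was used to grow yeast carrying genome-integrated tRNA variants (~3% random-mutation library), RFP, and a galactose-driven GFP ochre reporter. Cells went into GFP/RFP bins, which were Illumina-sequenced, and variants with ≥100 reads and ≥30 cells were scored. Nonsense suppression (GFPSEQ) is the per-bin median GFP/RFP weighted by estimated cell share and expressed relative to the unmutated parent tRNA.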
Consider CUCUCGGUAGCCAAGUUGGUUUAAGGCGCAAGACUUUAAUUUAUCACUACGAAAUGUUGUGAUCGGGCGUUCGACUCGCCCCCGGGAGAUUUUUUCCUCGAGCAA, for which the nonsense suppression is at most 0.026.
As for CUCUCGGUAGCCAAGUUGGUUUUCCGUGCAAGACGUUAAUUUAUCACUACGAAAUCUUGAGAUCGGGCGUUCGACUCGCACCCGGGAGAUUUUUUCCUCGAGCAA, the nonsense suppression was at most 0.026.
GUCUCGGUAGCCAAGUUGGUUUAAGGCGCAAGACUUUAAUUUAUCACUACGAAAUGUUGAGAUCGGGCGUUCGUCUCGCCCCCGGGAGAUUUUUUCCUCGAGCAA: the nonsense suppression was at most 0.026.
As for CUCUCGUUAGCCAAGUUGGUUGAAGGCGCAAGACUUUAAUUUAUCACUACGAAAUCUUGAGAUUGGGCGUUCGACUCGCCCCCGGGAGAUUUUUUCCUCGAGCAA, the figure is at most 0.026; as for CUCUCGGUAGCCAAGCUGGUUUAAGGCGCAAGACUUUAAUUUAUCACUACGAAAUCUUGAGAUCGGGCGUUCGCCUCGCCCCCGGGAGAUUUUUUCCUCGAGCAA, at most 0.026.
As for CUCUCGGUAGCCAAGUUGGUUUAAGGCUCAAUACUUUAAUUUAUCACUACGAAAUCUUGAGAUCGGGCGUUCGACUCGCCCCCGGGAGAUUUUUUCCUCGAGCAA, the figure is at most 0.026; as for CUCUCGGUAGCCAAGUUGGUUUAGGGCGCAAGACCUUAAUUUAUCACUACGAAAUCUUGAGAUCGGUCGUUCGACUCGCCCCCGGGAGAUUUUUUCCUCGAGCAA, at most 0.026; as for CUCUCGGUAGCCAAGUUGGUUUAGGGCGCAAGACGUUAAUUUAUCACUACGAAAUCUUGAGAUCGGGCGUGCGACUCGCCCCCGGUAGAUUUUUUCCUCGAGCAA, at most 0.026.
As for CUCUCGGUAGCCAAGUUGGUUUAAGGCGCAAAACUUUAAUUUAUCACUACGAAAUCAUGAUAUCGGGCGUUCGACUCGCCCCCGGGAGAUUUUUUCCUCGAGCAA, the figure is at most 0.026.
For the variant CUCUCGGUAGCCAAGUUGGUUUAAGGCGCAACACUUUAAUUUAUCACUACGAAAACUUGACAUCGGGCGUUCGACUCGCCCCCGGGAGCUUUUUUCCUCGAGCAA, the nonsense suppression is at most 0.026.
Regarding CUCUCGGUAGCCCAAUUGGUUUAAGGCGCAAGACUUUAAUUUAUCACUACGAAAUCUUGAGAUCGGGCGCUCGACUCGCCCCCGGGAGAUUUUUUCCUCGAGCAA, the nonsense suppression is at most 0.026.
As for GUCUCGGUAGCCAAUUUGGUUUAAGGCGCAAGACUUUAAUUUAUCACUACGAAAUCUUGAGCUCGGGCGUUCGACUCGCCCCCGGGAGAUUUUUUCCUCGAGCAA, the nonsense suppression is at most 0.026.
As for CUCUCGGUAGCCAAGUGGGUUUAAGGCGCAAGACUUUAAUUUAUCACUACGAAAUCUUGAAAUCGUGCGUUCGACUCGCCCCCGGGACAUUUUUUCCUCGAGCAA, the figure is at most 0.026.
For CUCUCGGUAGCCAAGUUGGUUUAAAGCGCAAAACUUUAAUUUAUCACUACGAAAUCUUGAGAUCGGGCGUUCGACUCGCCCCCGGGAGAUUUUUUCCUCGAGCAA, the nonsense suppression is at most 0.026.
As to CGCUCGGUAGCCAAGUUGGUUUAAAGCGCAAGACUUUAAUUUAUCACUACGAAAUCUUGAGAUCGGGCGUUCAACUCGCCCCCGAGAGAUUUUUUCCUCGAGCAA, the nonsense suppression was at most 0.026.
As for CCCUCGGUAGCCAAGUUGGUUUAAGGCGCAAGACUUUAAUUUAUCACUACGAAAUCUUGAGAUCGGGCGUUCGACUCGCCCCAGGACGAUUUUUUCCUCGAGCAA, the figure is at most 0.026; as for CUCUCGGUAGCCAAGUUGGUUUAAGGCGCAAGACUUUAAUUUAUCACUACGAAAUCUUGAGAUCGGGCGUUCGCCUCGCCCCCGGGAGGUUUUUUCCUCGAGCAA, at most 0.026; as for CUCUCGGUCGCCAAGUUGGUUUAAGGCGCAAGACUUUAAUUUAUCACUACGAAAUCUUGAGAUCAGGCGUUCGACUCGCCCCCGGGAGAUUUUUUCCUCGAGCAA, at most 0.026.
Consider CGCUCGGUAGCCAAGUUUGUUUAAGUCGCAAGACUUUAAUUUAUCACUACGAAAUCUUGAGAUCGGGCGUUCGAAUCGCCCCCGGGAGAUUUUUUCCUCGAGCAA, for which the nonsense suppression is at most 0.026.
As for CUCUCGGUACCCAAGUUAGUUUAAGGCGCAAGACUUUAAUUUAUCACUACGAAAUCUUGAGAUCGGGCGUUCGACUCGCCCCCGGGAGAUUUUUUCCUCGAGCAA, the figure is at most 0.026; as for GUCUCGGUCGCCAGGUUGGUUUAAGGCGUAAGACUUUAAUUUAUCACUACGAAAUCUAGAGAUCGGGCGUUCGACUCGCCCCCGGGAGAUUUUUUCCUCGAGCAA, at most 0.026.
Regarding CUAUCGGUGGCCAAGUUGGUUUAAGGCGCAAGACUUUAAUUUAUCACUACGAAAUCUUGAAAUCGGGCGUUCGACUCGCCCCCGGGAGAUUUUUUCCUCGAGCAA, the nonsense suppression is at most 0.026.
As for CUCUCGGUAGCCAAGUAGGUUUAAGGCGCAAGACUUUAAUUUAUCACUACGAAAUCUUGAGAUCGGGCGUUCGACUCACCCCCGGGUGAUUUUUUCCUCGAGCAA, the nonsense suppression was at most 0.026.
Regarding CUCUCGGUAGCCAAGUUGGUUUAAGGCGCAAGACUUUAAUUUAUCACUACGAAAUCUUGAGAUCGGGCGCUCGAUUCGCCCCCGGGAGAUUUUUUCCUCGAGCAA, the nonsense suppression is at most 0.026.
As for CUCUCGGUAGUCAAGUUUGUUUAAGGCGCAAGACUUUAAUUUAUCACUACGAAAUCUUGACAUCGGGCGUUCGACUCGCCCCCGGGAGAUUUUUUCCUCGAGCAA, the figure is at most 0.026.
As for CUCUCGGCAGCCAAGUUGGUUUAAGGCGCAAGACUUUAAUUUAUCACUACGAAAUCUUGAGAUCGGGCGUCCUACUCGCCCCCGGGAGAUUUUUUCCUCGAGCAA, the nonsense suppression was at most 0.026.
With CGCUCGGAAGCCAAGUUGGUUUAAGGCGCAAGACUUUAAUUUAUCACUACGAAAUCUUGAGAUCGGGCGUUCGACUCGCCCCCGGGGGAUUUUUUCCUCGAGCAA, the nonsense suppression is at most 0.026.
As to CUGUCGGUAGCCAAGUUGGUUUAAGGCGCAAGACUUUAAUUUAUCACUACGAAAUCUUUAGAUCGGACGUUCGACUCGCCCCCGGGAGAUUUUUUCCUCGAGCAA, the nonsense suppression is at most 0.026.
CUCUCGGUAGCCAAGUUGGUUCAUGGCGCAAGACUUUAAUUUAUCACUACGAAAUGUUGGGAUCGGGCGUUCGACUCACCCCCGGGAGAUUUUUUCCUCGAGCAA: the nonsense suppression was at most 0.026.
As for CUCUCGGUAUCCAAGUUGGUUUAAGUCGCAAGACUUUAAUUUAUCACUACGAAAUCUUGAGAUCGGGCGUUCGACUCGCCCCCGGGAGAUUUUUUCCUCGAGCAA, the figure is at most 0.026; as for CUCUCGGAAGCCAAGUGGGUUUAAGGCGCAAGACUUUAAUUUAUCACUACGAAAUCUUGAGAUCGGUCGUUCGACUCGCUCCCGGGAGAUUUUUUCCUCGAGCAA, at most 0.026.
For CUCUCGGUAGCCAAGUUGGUUUAAGGCGCCAGACUUUAAUUUAUCACUACGAAAUCUUGAGAUCGAGCGUUCGACUCGCCCCCGGGAGAUUUUUUCCUCGAGCAA, the nonsense suppression is at most 0.026.
As for CUCUCGGUAGCCAAGUUGGUUUAAGGCGCACGACUUUAAUUUAUCACUACGAAAUCUUCAGAUCGGGCGUUCGACUCGCCCCCGAGAGAUUUUUUCCUCGAGCAA, the figure is at most 0.026.
Regarding CUCUCGGUAGCCAAGUUGGGUUAAGGCGCAAGACUUUAAUUUAUCACUACGAAAUCUUGAGAUCGGGCGUUCGACUGGCCCCCGGGAGAUUUUUUCCUCGAGCAA, the nonsense suppression was at most 0.026.
Turning to CUCUCGGUAGCUAAGUUGGGUUAGGGCGCAAGACUUUAAUUUAUCACUACGAAAUCUUGAGAUCGGGCGUUCGACUCGCCCCCGGGAGAUUUUUUCCUCGAGCAA, the nonsense suppression is at most 0.026.
As for CUCUCGGUAGCCAAGUUGGUUUAAGGAGCAAGACGUUAAUUUAUCACUACGAAAACUUGAGAUCGGGCGUUCGACUCGCCCCCGGGAGAUUUUUUCCUCGAGCAA, the figure is at most 0.026.
As for CUCCCGGAAGCCAAGUUGGUUUAAGGCGCAAGAAAUUAAUUUAUCACUACGAAAUCUUGAGAUCGGGCGUUCGACUCGCCCCCGGGAGAUUUUUUCCUCGAGCAA, the figure is at most 0.026.
In the case of CUCUCGGUAGCCAAGUUGGUUUAAGGCGCAAGACUUUAAUUUAUCACUACGAAACCUUCAGAUCGGGCGUUCGACUCGCCCCCGCGAGAUUUUUUCCUCGAGCAA, the nonsense suppression is at most 0.026.
As for CGCUCGGUAGUCAAGUUGGUUUAAGGCGCAAGACUUUAAUUUAUCACUACGAAAGCUUGUGAUCGGGCGUUCGACUCGCCCGCGGCAUAUUUUUUCCUCGAGCAA, the figure is at most 0.026; as for CUCUCGGUAGCCAAGUUGGUUUAAGGCGCAAGACUUUAAUUUAUCACUACGAAAUCUUGAGAUCGUGCGUUCGACUCCCCCCCGGGAGAUUUUUUCCUCGAGCAA, at most 0.026.
As for CUCUCGGUUGCCAAGUUGGUUUAAGGCGCAAGACUUUAAUUUAUCACUACGAAAUCUUGAGUUCGGGCGUUCGACUCGCCCCCGGGAGAUUUUUUCCUCGAGCAA, the figure is at most 0.026; as for CUCUCGGUAGCCAAGUUGGUUUAAGGCGCAAGAGUUUAAUUUAUCACUACGAAAUCUUUCGAUCGUGCGUUCGACUCGCCCCCGGGAGAUUUUUUCCUCGAGCAA, at most 0.026.
On to CUCUCGGUAGCCCAGUUCGUUUAAGUCGCAAGACUUUAAUUUAUCACUACGAAAUCUUGACAUCGGGCGUUCGACUCGCCCCCGGGAGAUUUUUUCCUCGAGCAA, for which the nonsense suppression was at most 0.026.
Turning to CUCUAGGUAGCCAUGUUGGUUUAAGGCGCUAGACUUUAAUUUAUCACUACGAAAUCCUGAGAUCGGGCGUUCGACUCGCCCCCGGGAGAUUUUUUCCUCGAGCAA, the nonsense suppression is at most 0.026.
As for CUCUCGAUAGCCAAGUUGGUUUAAGGCGCAAGAUUUUAAUUUAUCACUACGAAAUCUUGAGAUCGGGCGUUCGACUCGCCGCCGGGAGAUUUUUUCCUCGAGCAA, the figure is at most 0.026; as for CUCUCGGUAGCCAAGUUGGUUUAAGGCGCAAGACUUUAAUUUAUCACUACGAAAUCCUGAGAUGGGGCGUUCGACUCGCCCCCGGGAGAUUUUUUCCUCGAGCAA, at most 0.026; as for CUCUCGGUACCCAAGUUGGUUUAAGGCGCAAGAUUUUAAUUUAUCACUACGAAAUCUUGAGAUCGGGCGUUCGACUCGCCCCCGUGAGAUUUUUUCCUCGAGCAA, at most 0.026.
As for CUCUCGGUAGCCAAGUUGGUUUAAGGCGCAAGACUUUAAUUUAUCACUACGAAAUCUUCAGGUCGGGCGUUCGACUCGCCCCCGGGAGAUUUUUUCCUCGAGCAA, the figure is at most 0.026; as for CUCUCGGUAGCCAAGUUGGUUUAACGCGAAAGACUUUAAUUUAUCACUACGAAAUCUUGAGAUCGGGCGUUCGACUCACCCCCGGGGGAUUUUUUCCUCGAGCAA, at most 0.026; as for CUCUCGGUAGCCAAGUUGGUCUAAGGCGCAUGACUUUAAUUUAUCACUACGAAAUCUUCUGAGCGGGCGUUCGACUCGCGCCCGGGAGAUUUUUUCCUCGAGCAA, at most 0.026.
For CUGUCGGUAGCCAAGUUGGUUUAAGGCGCAAGACUUUAAUUUAUCACUACGAAAUCUUGAGAUCGGGCGUUCGACUCGCCACCGGGAGAUUUUUUCCUCGAGCAA, the nonsense suppression is at most 0.026.
As to CUCUCGGUAGCCAAGUUGGUUUAAGGCGCAAGACUUUAAUUUAUCACUACGAAUUCUUGAGAUCGGGCGUUCGACUCGCACCCGGGAGAUUUUUUCCUCGAGCAA, the nonsense suppression was at most 0.026.
As for CUCACGGUAGCCCAGUUGGUUUAAGGCGCAAGACUUUAAUUUAUCACUACGAAAUCUUGAGAUCGGGCGUUCGACUCGCCCCCGGGAGAUUUUUUCCUCGAGCAA, the nonsense suppression turned out to be 0.294.
Regarding CUCUCGGAAGACAAGUUGGUUUAAGGCGCAAGACUUUAAUUUAUCACUACGAAAUCUUGAGAUCGGGCGUUCGACUCGCCCCCGGGAGAUUUUUUCCUCGAGCAA, the nonsense suppression is at most 0.026.
